From the BET-seq Pho4 binding data (Le et al. 2018)
This is one part of the list. Values were computed here from the reads of four pooled replicates and scatter widely.

Biological target: T1, Pho4 (S. cerevisiae) (UniProt P07270)
T1 sequence: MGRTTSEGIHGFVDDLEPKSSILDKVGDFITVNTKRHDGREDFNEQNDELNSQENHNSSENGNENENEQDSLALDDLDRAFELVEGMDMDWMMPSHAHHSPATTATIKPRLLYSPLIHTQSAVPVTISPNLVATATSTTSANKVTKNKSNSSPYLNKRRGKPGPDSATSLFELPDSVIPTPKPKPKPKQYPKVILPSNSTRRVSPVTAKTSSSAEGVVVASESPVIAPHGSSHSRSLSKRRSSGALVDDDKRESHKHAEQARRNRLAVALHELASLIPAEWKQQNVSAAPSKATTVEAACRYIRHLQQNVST
Assay: relative binding free energy (BET-seq); higher = weaker binding
Conditions: reference: library average

Sequence | relative binding free energy [kcal/mol]
CTCGGCACGTGAGTGT | 0.21
GAGTACACGTGGGTGA | -0.12
GAGTGCACGTGCCTGT | 0.01
ATGTACACGTGAGTTG | 0.15
TTTAGCACGTGGAGGA | -0.07
GTGAGCACGTGGTCAT | -0.22
AGTGGCACGTGAGGTT | 0.16
TAGGTCACGTGGAGCT | 0.12
ATTAGCACGTGAGGAG | 0.19
TATGTCACGTGAGGCG | 0.29
TGTAACACGTGGTGGG | 0
CTGTGCACGTGTAGCG | 0.03
TTTACCACGTGGTGGT | -0.19
ACTGACACGTGGTGGA | 0.01
TGATTCACGTGAAGCT | 0.4
AGTTACACGTGTTATG | 0.11
ATGGACACGTGATGGG | 0.19
GTGGTCACGTGGCCTG | 0.19
TTAAGCACGTGTGCTT | -0.14
TGGATCACGTGGTACG | 0.02
ATATTCACGTGTTTAT | 0.14
AGTGTCACGTGGGGCG | -0.17
TAGCTCACGTGTTTGA | 0.1
GTATGCACGTGGGCAG | -0.05
GCCGGCACGTGGGGGC | -0.32
TCGTTCACGTGTAGAA | 0.37

Sequence | relative binding free energy [kcal/mol]
AGATGCACGTGCGTGC | 0.06
TGGATCACGTGTGCCA | 0.27
TGAAACACGTGTTGTT | 0.01
TGCAACACGTGGGGTT | -0.13
TTTAACACGTGTAGCG | 0.07
TGGTACACGTGATGCT | 0.17
AGGCTCACGTGTGAAG | 0.24
TAATCCACGTGGAGGG | -0.05
TTGGGCACGTGTATGA | 0
CATGACACGTGTGTTT | 0.1
TTATGCACGTGGCGAG | 0.03
TGGGACACGTGTTTCG | 0.09
TGTGACACGTGTGTTC | 0.02
GATATCACGTGCTTAT | 0.31
TCGTACACGTGAGGGG | 0.33
AAGTTCACGTGCGTGT | 0.33
TAGGTCACGTGGTGTA | -0.03
ACTGACACGTGGGTTT | -0.17
TTAGGCACGTGTTAAT | -0.12
AGGATCACGTGATAGG | 0.33
TGATGCACGTGTGTCG | -0.16
AATGGCACGTGATGGT | 0.1
ATGTGCACGTGTATGG | -0.07
TCCTTCACGTGGGATT | 0.4
GACGGCACGTGTGGTT | -0.07
TTGGGCACGTGGGAAA | -0.07

Sequence | relative binding free energy [kcal/mol]
AATAACACGTGTATGT | -0.08
CGTTGCACGTGGCGAG | 0.02
ACGTTCACGTGATTAG | 0.43
GAGGGCACGTGTTATG | 0
GGGTACACGTGGGGCA | 0
GTCGCCACGTGATGGG | 0.14
TGATGCACGTGCTATA | 0.05
ATGGTCACGTGACATT | 0.19
CATTGCACGTGATGTG | -0.08
GGCATCACGTGTTTAG | 0.14
CGGCTCACGTGGTGGA | 0.19
CGAGGCACGTGAGGAT | 0.22
GGTATCACGTGTAGCT | 0.19
ATGGTCACGTGGTGGC | 0.01
GATATCACGTGTTCGG | 0.19
GGATTCACGTGTCTGT | 0.21
AATTGCACGTGTGTGC | 0.14
ATGTGCACGTGCGGTG | -0.05
AGTAGCACGTGGAGTA | -0.06
GGGTACACGTGGGATT | -0.01
ACGGGCACGTGGAGCT | -0.04
TGTGTCACGTGATGGT | 0.26
TATGACACGTGACGGG | 0.07
CGTTGCACGTGCTGGG | -0.19
TTGTTCACGTGCGGAT | 0.22
GTCCGCACGTGTTGTG | -0.07

Sequence | relative binding free energy [kcal/mol]
AAGTTCACGTGTGTCT | 0.32
TTCATCACGTGGGAGT | 0.06
ATAGACACGTGCGGGG | -0.1
CGGTACACGTGGTGGT | -0.06
CATTACACGTGGGAGT | 0.07
CTAGTCACGTGTTGGC | 0.24
TGTCTCACGTGCAGGT | 0.2
GAGTGCACGTGGGTGT | -0.12
AAGGCCACGTGGTTTG | -0.1
GGTCACACGTGAGGTT | 0.35
TTGCTCACGTGTGGTA | 0.22
GTCAGCACGTGTGGGG | 0.04
ATGAGCACGTGCGGGC | -0.08
TGGAGCACGTGCAGTT | -0.12
GCCGGCACGTGGTGGG | -0.07
ATGGTCACGTGTGAGA | 0.19
AGATACACGTGTGTTT | 0.05
TCTTGCACGTGTGAGT | 0.08
ATTTTCACGTGGCGTT | 0
TGCCTCACGTGGGTGT | 0.2
GGGTGCACGTGGATGT | 0.08
TCAGGCACGTGGGTGC | -0.26
GGTTCCACGTGATGAG | 0.25
GGGCTCACGTGGTTGA | 0.23
AGTGTCACGTGAGGAT | 0.16
TTTGGCACGTGATGAT | 0.05

Sequence | relative binding free energy [kcal/mol]
AGTTGCACGTGATTTG | 0.28
TAGGGCACGTGTACGG | -0.27
TGGTACACGTGATCGT | 0.04
TTTAACACGTGCTGAT | -0.05
AGTGTCACGTGGTTAC | -0.18
GCGAGCACGTGTATGG | -0.12
GTTGGCACGTGATCTT | -0.04
TTTAGCACGTGATAGT | 0.1
ATTTGCACGTGTTTCG | 0.03
GTGATCACGTGTTTTG | 0.13
GTGGTCACGTGAAGGC | 0.21
TAACTCACGTGTGAGT | 0.34
CTTGGCACGTGCTTAT | -0.05
TTATGCACGTGCGTGT | -0.1
GAGGACACGTGGGCGG | -0.14
TGCGTCACGTGGCGTG | 0.06
GAAATCACGTGGGGTC | 0.18
ATAGTCACGTGGTCGA | -0.09
TCTGGCACGTGGTGTA | -0.22
CTATGCACGTGGATTT | 0.03
GCGGTCACGTGCGTTG | 0.09
TTGAACACGTGGATTC | 0.18
TGCTGCACGTGGTTAA | -0.13
ATTGTCACGTGACAGA | 0.26
GTTGACACGTGGATCT | 0.25
TATGTCACGTGGTATG | 0

Sequence | relative binding free energy [kcal/mol]
GGGAGCACGTGGTCTG | -0.15
GCGGACACGTGAAGGT | 0.37
CTTGGCACGTGTACGG | -0.01
GGCGGCACGTGTGTGA | 0.03
TTAGGCACGTGTATTT | 0.07
TGCTGCACGTGTACGT | -0.01
AGGGACACGTGAGGTT | 0.28
TTGTGCACGTGTAGCA | 0.02
CATTACACGTGGTGAG | 0.22
GGGGACACGTGTGACG | 0.11
TTGGGCACGTGGACAT | -0.23
TTGGTCACGTGCTCTT | 0
GTTTACACGTGGGTAG | 0.05
TGGGGCACGTGTCGCA | -0.08
AGGTGCACGTGAATGC | 0.06
ACTATCACGTGGAGTG | 0.13
GTGTACACGTGTCGGC | 0.16
CGGGACACGTGTAAGT | 0.1
GGTTACACGTGGAGGG | 0.12
GTTATCACGTGGTAAC | 0.28
GGGTTCACGTGTATGA | 0.37
TTGTTCACGTGTTGAG | 0.26
ATTAACACGTGGGATT | 0.01
ATCTTCACGTGTATTG | 0.11
GTTTCCACGTGAAGGG | 0.38
TGTCACACGTGTTATA | 0.07

Sequence | relative binding free energy [kcal/mol]
TAGGGCACGTGAATGG | 0.2
TGGATCACGTGATGGC | 0.14
TAGCGCACGTGTTTGG | -0.07
ACATGCACGTGTGGGA | 0.06
AGTTGCACGTGATGGC | 0.27
CTTGACACGTGAGGCT | 0.28
GGTTTCACGTGACAGG | 0.28
GTTGACACGTGTAGAG | 0.19
CTTTTCACGTGTTTGC | 0.23
CTGGGCACGTGAAAAT | 0.28
TTGTACACGTGTGATC | 0.21
TAGGACACGTGATATT | 0.05
GGAGCCACGTGAGAGG | 0.19
TTGAGCACGTGTGTGC | -0.02
TAATGCACGTGTGATG | 0.05
TTTAACACGTGAGGCT | 0.41
CGTGGCACGTGTGGAA | -0.02
GTTATCACGTGGTGTC | 0.09
AGCGGCACGTGTGGAT | -0.12
TGTTTCACGTGTTAAT | 0.24
GACGACACGTGTTTGG | 0.16
AGTCACACGTGAGGTT | 0.23
AGATCCACGTGGTGGT | -0.03
GGGGCCACGTGGCTCG | 0.02
GTTTACACGTGTTCGT | 0.07
TGGATCACGTGTCGTA | 0.16

Sequence | relative binding free energy [kcal/mol]
TGTGGCACGTGACGTG | 0
AGCTTCACGTGTATTT | 0.18
GGCATCACGTGCAGGG | 0.22
TGGAGCACGTGTGTGA | -0.02
TCAGGCACGTGAGTAG | 0.09
GAGTTCACGTGGTTGT | 0.28
TGGTACACGTGTGGCA | 0.18
AGATGCACGTGGGGTT | -0.11
GCGGTCACGTGTCGTT | 0.16
TAGGTCACGTGGCGGT | 0.08
TGTACCACGTGGGGGT | -0.31
TAGATCACGTGGTATT | 0.2
TATTTCACGTGTTTGT | 0.31
GGTTACACGTGATTCG | 0.25
TATGTCACGTGTGATA | 0.17
TCGATCACGTGCGTGG | 0.16
TGTGACACGTGACGGG | 0.15
TGATTCACGTGGATGA | 0.24
TGGTGCACGTGGTATC | -0.18
GTGGTCACGTGGTAGG | 0.14
AATAGCACGTGTGGTT | -0.02
AGTGGCACGTGCGAGG | -0.12
GGTCACACGTGTTGTG | 0.15
AGTGTCACGTGATAAA | 0.22
GTAAGCACGTGGTTGT | -0.03
CTCGTCACGTGGTGGG | 0.02

Sequence | relative binding free energy [kcal/mol]
AAAGCCACGTGGGTGT | -0.14
TAATGCACGTGGGGTA | -0.26
CTCATCACGTGGGGTG | -0.12
GCTTGCACGTGGTAGG | -0.06
AATGGCACGTGAATAG | 0.25
GGACGCACGTGTTAAT | 0.12
GGTGGCACGTGATGTT | 0.09
TTGCTCACGTGGGTCT | 0.03
AGCTTCACGTGTGGTG | 0.23
TTGATCACGTGGCTAG | 0.05
ATATGCACGTGTGAGA | 0.12
ATGGCCACGTGTGGGA | -0.03
CTTGTCACGTGATGTG | 0.23
TGTTTCACGTGGCGAA | 0.21
CTTTGCACGTGGGCGT | -0.16
TGGGTCACGTGCAGGT | 0.16
GGTATCACGTGAGTTC | 0.29
CTGATCACGTGGCGTA | 0.18
TATATCACGTGCAATG | 0.18
ACTGACACGTGTTGGT | 0.07
GGGTCCACGTGCTGGG | 0
TATGTCACGTGCGTGC | -0.12
